Test results taken from PubChem BioAssay AID1948 (National Center for Advancing Translational Sciences (NCATS), 2009).
Among all 110,000 compounds or so, about 20 (0.02%) were called active. The inconclusive results got no clear call from the source; some entries with a clear call stand among them for comparison. The call rests on the fitted dose curve; in most records, active means well fitted activation curve with a large enough effect; inconclusive means small, poorly fitted or top-dose-only effect; inactive means no such curve, though single readings can be large or run the other way. No potency is given beside an inconclusive call; the fits are too rough.

experiment: qHTS Assay for Compounds that Induce Erasure of Genomic Imprints; details: mouse ES Peg3-LacZ reporter, beta-gal luminescence, 40 h; activity change, positive = activation: at 10.9 µM (top of the series) unless noted;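 on activity change, positive = activation: 0% = negative control wells on the plate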
How it was run: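 Readout: BetaGlo luminescence (5 min, room temp) for LacZ from the normally silent maternal Peg3 allele in female Peg3LacZ-Neo ES cells. Cells 300/well, 40 h, 37C, 5% CO2. Data normalized per plate to negative controls.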
Potency means the concentration at half of the fitted maximal effect; tags describe the fitted curve by direction and shape.

Compound	activity change, positive = activation	Potency
CCN(Cc1ccccc1)S(=O)(=O)c1cc(Br)cc2c1N(C(=O)C1CC1)CC2	inactive: -13%	
Cc1cc(C(=O)COc2ccc3ccc(=O)oc3c2)c(C)n1Cc1cccs1	inactive: -18.8% [at 60.7 µM]	
COC(=O)c1ccccc1NC(=O)n1cc(C)cn1		inconclusive [activator, single point]
[O-]/[N+](=C/c1ccc(F)cc1)c1ccccc1		inconclusive [activator, single point]
O=C(c1ccccc1)N1c2nc(-c3ccco3)nn2C2(CCCCC2)[C@@H]2CCCC[C@@H]21	inconclusive: 105% [activator]	
COc1ccc(-c2nc3sc(CCNC(=O)c4ccc(Br)o4)c(C)n3n2)cc1	inconclusive: 114% [activator]	
COC(=O)c1ccccc1NS(=O)(=O)c1cc2c(cc1C)N(C)CCO2	inactive: -7.81%	
N#C[C@H]1CN[C@H](N)N[C@@H]1N		inconclusive [activator, full curve, poor fit]
O=C(NCc1ccco1)C1CCN(C(=O)c2cc3sccc3n2Cc2ccc(Cl)cc2)CC1	inactive: -24.9% [at 60.7 µM]	
COc1ccc(-c2nc3cnc(N4CCOCC4)nc3n(CCc3ccccc3)c2=O)cc1		inconclusive [activator, single point]
Cc1ccc(CCNS(=O)(=O)c2ccc3c(c2)C(C(C)C)C(=O)N3)cc1 (stereo unspecified)	inconclusive: 32.2% [activator]	
CCOC(=O)/C=c1\sc2n(c1=O)CCN=2		inconclusive [activator, single point]
O=c1c(-c2ccc(F)cc2)nc2cnc(Nc3ccccc3)nc2n1C[C@H]1CCCO1		inconclusive [activator, single point]
Cc1cccc(NC(=O)CN2C(=O)C3(SCC(=O)N3c3ccccc3)c3ccccc32)c1 (stereo unspecified)	inactive: -10.5%	
COCCOC(=O)c1[nH]c2c(c1C)C(=O)CC(c1ccc(F)cc1)C2 (stereo unspecified)	inactive: -25.2% [at 60.7 µM]	
Cc1nc2cnc(Oc3cccc(Cl)c3)nc2n(Cc2ccc(F)cc2)c1=O		inconclusive [activator, single point]
CCn1c(N)nc2ccccc21		inconclusive [activator, single point]
CC(=O)CCc1c(C)[nH]c2ccc(NC(C)=O)cc2c1=O		inconclusive [activator, single point]
CCOc1ccc(C2c3c(-c4cc(C)ccc4O)n[nH]c3C(=O)N2Cc2cccnc2)cc1OCC (stereo unspecified)	inconclusive: 45.8% [activator]	
CCN(Cc1ccccc1)C(=O)CCS(=O)(=O)c1cc2c(cc1Cl)NC(=O)CO2	inconclusive: 35.9% [activator]	
Cc1ccc(NC(=O)c2c(NC(=O)c3ccco3)sc3c2CCC(C(C)(C)C)C3)c(C)c1 (stereo unspecified)	inconclusive: 32.2% [activator]	
COC(=O)c1ccc(NC(=O)CSc2nc3ccc(OC)cc3[nH]2)cc1	inactive: 19.5%	
COc1cccc(Nc2ncc3nc(-c4cccs4)c(=O)n(-c4ccccc4)c3n2)c1		inconclusive [activator, single point]

Compound	activity change, positive = activation	Potency
COc1cc(C2Nc3ccccc3-c3cc(C)nn32)ccc1O (stereo unspecified)	inconclusive: 46.2% [activator]	
CC(=O)c1c(C)[nH]c(C(=O)Nc2ccc3c(c2)OCCO3)c1C	inactive: -84.6% [at 60.7 µM]	
Cn1c(=O)c2nc(SCC(=O)Nc3ccc(OC(F)(F)F)cc3)n(C)c2n(C)c1=O	inconclusive: 52.3% [activator]	
NC(=O)CC[C@H](N)C(=O)O		inconclusive [activator, single point]
CCc1ccc(-n2c(=O)c3c4c(sc3n(Cc3ccccc3C#N)c2=O)CCCC4)cc1	inconclusive: 30.9% [activator]	
COCCn1c(=O)c(-c2ccc(Cl)cc2)nc2cnc(Nc3ccccc3)nc21		inconclusive [activator, single point]
CCc1ccc(C(=O)c2cn(CC(=O)Nc3ccc(Cl)cc3)c3cc4c(cc3c2=O)OCO4)cc1	inactive: -16.4%	
Cc1cccc(N(C)c2nc3ccccc3c3nnc(C)n23)c1	inconclusive: 33.7% [activator]	
c1ccc(COc2ccc(OCCCn3cncn3)cc2)cc1		inconclusive [activator, single point]
O=C(CS(=O)(=O)c1cccc2nsnc12)N1CCN(c2cccc(Cl)c2)CC1	inconclusive: 42.1% [activator]	
CCCc1cc(=O)[nH]c(SCC(=O)N2CCN(c3ccccc3)CC2)n1	inconclusive: 33.5% [activator]	
CC(=O)c1ccc(NC(=O)c2cc(C)nn2-c2ccccc2)cc1	inconclusive: 43% [activator]	
COc1ccc(C(=O)c2oc3ccccc3c2NC(=O)c2cc(=O)c3ccc(C)cc3o2)cc1Cl	inconclusive: 55.7% [activator]	
CC(C)(C)c1ccc(S(=O)(=O)/C=C/C#N)cc1	inactive: -40.4% [at 60.7 µM]	
Cn1cc(-c2nc3cnc(Oc4ccccc4)nc3n(C3CC3)c2=O)c2ccccc21		inconclusive [activator, single point]
Cc1noc(C(=O)Nc2ccc3c(c2)OCO3)c1Cl	inactive: -74.7% [at 60.7 µM]	
COc1cccc(Nc2ncc3ncc(=O)n(Cc4ccc(F)cc4)c3n2)c1		inconclusive [activator, single point]
COc1ccc(N2CCN(CCCNC(=O)C3COc4ccccc4C3)CC2)cc1 (stereo unspecified)	inconclusive: 80.5% [activator]	
O=C1C=CC(=O)c2c(O)c(Cl)c(Cl)c(O)c21		inconclusive [activator, partial curve]
Cc1cc(=O)n2nc(N(C)CC(=O)NCc3ccccc3C)sc2n1	inconclusive: 51.7% [activator]	
COc1ccc2c(c1)c1c(c(=O)n(Cc3ccccc3)c(=O)n1CC(=O)Nc1ccccc1OC)n2C	inactive: -3.23%	
COc1cccc(-c2cc(NCc3ccccc3OC)ncn2)c1		inconclusive [activator, single point]
Cc1cc(C)cc(-n2c(SCC(=O)Nc3ccccc3)nc3c(oc4ccccc43)c2=O)c1	inactive: -14.2%	
